# Source: publication PMC12820563
# The list shows a part of the results. The list includes weakly bound sequences.
# Target: T1, MBP-FoxP3dN (UniProt Q99JB6)
# T1 sequence: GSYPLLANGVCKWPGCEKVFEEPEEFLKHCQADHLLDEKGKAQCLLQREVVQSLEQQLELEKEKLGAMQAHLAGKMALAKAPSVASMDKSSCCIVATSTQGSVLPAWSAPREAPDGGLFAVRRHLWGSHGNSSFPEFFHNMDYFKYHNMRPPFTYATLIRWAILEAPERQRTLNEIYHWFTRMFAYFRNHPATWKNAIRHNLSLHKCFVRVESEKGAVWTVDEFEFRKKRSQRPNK
# Assay: PD-seq (MBP pull-down with sequencing)
# Details: 20 mM Tris-HCl pH 7.5, 100 mM NaCl, 1.5 mM MgCl2, 0.4 uM protein, 0.1 uM dsDNA library, 30 min, room temperature, amylose pull-down; high values mean tight binding; double strand, one strand shown
row,Sequence,binding signal (RPM ratio (pull-down/input))
1,GATGATTGTTCTCCCAGCTGATGAATTGAAGTTATCGAGTAAACAAATTTTCCTAATCTTTCTGTTCAAGCGCCATCTAC,0.604
2,GATGATTGTTCTCCCAGCTGATGAATTGGAATAGTCGAGTAAACAAATTTTCCTAATCTTTCTGTTCAAGCGCCATCTAC,0.311
3,GATGATTGTTCTCCCAGCTGATGAATTGGCGGGTTCGAGTAAACAAATTTTCCTAATCTTTCTGTTCAAGCGCCATCTAC,0.391
4,GATGATTGTTCTCCCAGCTGATGAATTTAGCGCGTCGAGTAAACAAATTTTCCTAATCTTTCTGTTCAAGCGCCATCTAC,1.59
5,GATGATTGTTCTCCCAGCTGATGAATTATTCAGATCGAGTAAACAAATTTTCCTAATCTTTCTGTTCAAGCGCCATCTAC,0.24
6,GATGATTGTTCTCCCAGCTGATGAATTCCTTCAATCGAGTAAACAAATTTTCCTAATCTTTCTGTTCAAGCGCCATCTAC,0.215
7,GATGATTGTTCTCCCAGCTGATGAATTTGGCTCTTCGAGTAAACAAATTTTCCTAATCTTTCTGTTCAAGCGCCATCTAC,0.655
8,GATGATTGTTCTCCCAGCTGATGAATTTATGCCGTCGAGTAAACAAATTTTCCTAATCTTTCTGTTCAAGCGCCATCTAC,1.27
9,GATGATTGTTCTCCCAGCTGATGAATTTAGCGAGTCGAGTAAACAAATTTTCCTAATCTTTCTGTTCAAGCGCCATCTAC,0.73
10,GATGATTGTTCTCCCAGCTGATGAATTACTTACCTCGAGTAAACAAATTTTCCTAATCTTTCTGTTCAAGCGCCATCTAC,0.414
11,GATGATTGTTCTCCCAGCTGATGAATTTGCAGGGTCGAGTAAACAAATTTTCCTAATCTTTCTGTTCAAGCGCCATCTAC,0.849
12,GATGATTGTTCTCCCAGCTGATGAATTTGTCGCCTCGAGTAAACAAATTTTCCTAATCTTTCTGTTCAAGCGCCATCTAC,3.03
13,GATGATTGTTCTCCCAGCTGATGAATTCCGTCGCTCGAGTAAACAAATTTTCCTAATCTTTCTGTTCAAGCGCCATCTAC,0.441
14,GATGATTGTTCTCCCAGCTGATGAATTAGGTGGTTCGAGTAAACAAATTTTCCTAATCTTTCTGTTCAAGCGCCATCTAC,0.919
15,GATGATTGTTCTCCCAGCTGATGAATTAAGAATGTCGAGTAAACAAATTTTCCTAATCTTTCTGTTCAAGCGCCATCTAC,0.505
16,GATGATTGTTCTCCCAGCTGATGAATTGTGGGCTTCGAGTAAACAAATTTTCCTAATCTTTCTGTTCAAGCGCCATCTAC,0.63
17,GATGATTGTTCTCCCAGCTGATGAATTGGAGCGGTCGAGTAAACAAATTTTCCTAATCTTTCTGTTCAAGCGCCATCTAC,0.272
18,GATGATTGTTCTCCCAGCTGATGAATTGGGGATTTCGAGTAAACAAATTTTCCTAATCTTTCTGTTCAAGCGCCATCTAC,0.404
19,GATGATTGTTCTCCCAGCTGATGAATTCTGGGTATCGAGTAAACAAATTTTCCTAATCTTTCTGTTCAAGCGCCATCTAC,0.634
20,GATGATTGTTCTCCCAGCTGATGAATTAGGAATATCGAGTAAACAAATTTTCCTAATCTTTCTGTTCAAGCGCCATCTAC,0.47

row,Sequence,binding signal (RPM ratio (pull-down/input))
1,GATGATTGTTCTCCCAGCTGATGAATTCGGACAGTCGAGTAAACAAATTTTCCTAATCTTTCTGTTCAAGCGCCATCTAC,0.285
2,GATGATTGTTCTCCCAGCTGATGAATTGTGGAATTCGAGTAAACAAATTTTCCTAATCTTTCTGTTCAAGCGCCATCTAC,0.848
3,GATGATTGTTCTCCCAGCTGATGAATTGCGAACGTCGAGTAAACAAATTTTCCTAATCTTTCTGTTCAAGCGCCATCTAC,0.621
4,GATGATTGTTCTCCCAGCTGATGAATTCTCAAGCTCGAGTAAACAAATTTTCCTAATCTTTCTGTTCAAGCGCCATCTAC,0.225
5,GATGATTGTTCTCCCAGCTGATGAATTCCTGTGCTCGAGTAAACAAATTTTCCTAATCTTTCTGTTCAAGCGCCATCTAC,0.35
6,GATGATTGTTCTCCCAGCTGATGAATTCGAACGCTCGAGTAAACAAATTTTCCTAATCTTTCTGTTCAAGCGCCATCTAC,0.31
7,GATGATTGTTCTCCCAGCTGATGAATTAAGGTCCTCGAGTAAACAAATTTTCCTAATCTTTCTGTTCAAGCGCCATCTAC,0.423
8,GATGATTGTTCTCCCAGCTGATGAATTCATTGTCTCGAGTAAACAAATTTTCCTAATCTTTCTGTTCAAGCGCCATCTAC,2.39
9,GATGATTGTTCTCCCAGCTGATGAATTCGCATTTTCGAGTAAACAAATTTTCCTAATCTTTCTGTTCAAGCGCCATCTAC,4.25
10,GATGATTGTTCTCCCAGCTGATGAATTAGTCCCCTCGAGTAAACAAATTTTCCTAATCTTTCTGTTCAAGCGCCATCTAC,0.589
11,GATGATTGTTCTCCCAGCTGATGAATTTGGTCAGTCGAGTAAACAAATTTTCCTAATCTTTCTGTTCAAGCGCCATCTAC,0.311
12,GATGATTGTTCTCCCAGCTGATGAATTGCACGTCTCGAGTAAACAAATTTTCCTAATCTTTCTGTTCAAGCGCCATCTAC,1.03
13,GATGATTGTTCTCCCAGCTGATGAATTAGAGGGGTCGAGTAAACAAATTTTCCTAATCTTTCTGTTCAAGCGCCATCTAC,0.394
14,GATGATTGTTCTCCCAGCTGATGAATTCACGGCATCGAGTAAACAAATTTTCCTAATCTTTCTGTTCAAGCGCCATCTAC,0.723
15,GATGATTGTTCTCCCAGCTGATGAATTCCCCATTTCGAGTAAACAAATTTTCCTAATCTTTCTGTTCAAGCGCCATCTAC,0.267
16,GATGATTGTTCTCCCAGCTGATGAATTCCAGGTGTCGAGTAAACAAATTTTCCTAATCTTTCTGTTCAAGCGCCATCTAC,0.478
17,GATGATTGTTCTCCCAGCTGATGAATTATAAGCCTCGAGTAAACAAATTTTCCTAATCTTTCTGTTCAAGCGCCATCTAC,0.453
18,GATGATTGTTCTCCCAGCTGATGAATTACATACATCGAGTAAACAAATTTTCCTAATCTTTCTGTTCAAGCGCCATCTAC,1.07
19,GATGATTGTTCTCCCAGCTGATGAATTATCATCTTCGAGTAAACAAATTTTCCTAATCTTTCTGTTCAAGCGCCATCTAC,0.605
20,GATGATTGTTCTCCCAGCTGATGAATTCTACGTATCGAGTAAACAAATTTTCCTAATCTTTCTGTTCAAGCGCCATCTAC,0.491
